Source: PubChem BioAssay AID1347077 (National Center for Advancing Translational Sciences (NCATS), 2019)
Among all 44,000 compounds or so, fewer than 10 were called active. This list was built around the results that the source calls inconclusive (neither active nor inactive); the mix of calls is not that of the screen. Calls follow the shape of the dose curve; as a rule, active = well fitted activation curve with a large enough effect; inconclusive = small, poorly fitted or top-dose-only effect, or another doubt; inactive = no such curve, though single readings can be large or run the other way. No potency is given beside an inconclusive call; the fits are too rough.

target: Beta-2 adrenergic receptor (Homo sapiens) (UniProt P07550); assay: qHTS assay of beta-arrestin-biased ligands of beta2-adrenergic receptor: NCGC Sytravon Library Screen; conditions: HTLA Tango cells, beta-arrestin recruitment, luciferase luminescence, 18 h; series mostly up to 46.1 µM; activation: at the top concentration;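 as to activation: 0% = DMSO and full agonism = EC100 isoproterenol or metaproterenol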
Chain of UniProt P07550 (P07550 whole entry, looked up): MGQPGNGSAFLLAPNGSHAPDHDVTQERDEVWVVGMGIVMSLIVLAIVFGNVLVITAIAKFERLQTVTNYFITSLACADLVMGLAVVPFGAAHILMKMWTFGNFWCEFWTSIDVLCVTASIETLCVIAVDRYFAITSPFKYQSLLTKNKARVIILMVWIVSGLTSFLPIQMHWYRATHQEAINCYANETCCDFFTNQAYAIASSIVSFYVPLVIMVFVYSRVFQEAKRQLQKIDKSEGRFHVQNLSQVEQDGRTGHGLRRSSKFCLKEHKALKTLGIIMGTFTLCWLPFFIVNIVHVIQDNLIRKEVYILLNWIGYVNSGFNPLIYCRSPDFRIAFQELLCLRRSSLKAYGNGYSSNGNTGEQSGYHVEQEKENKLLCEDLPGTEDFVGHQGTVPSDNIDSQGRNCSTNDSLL
Outline: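 Receptor–beta-arrestin recruitment read by tTA-responsive luciferase: compound titrations (up to 46 µM) incubated 18 h with Tango cells, then luminescent substrate 15 min at room temperature. Concentration-response fits classified by r2, efficacy and activity.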
Potency is read from the fitted curve at half-maximal effect; tags tell the direction and shape of the fitted curve.

Structure (SMILES) | activation | Potency
COc1cc(NC(=O)c2cc3ccc4cccnc4c3[nH]2)cc(OC)c1OC | inactive: 1.03% | 
Cc1nc(-c2ccc(S(=O)(=O)N3CCN(c4cc(Cl)ccc4C)CC3)cc2)co1 | inactive: -0.325% | 
Cc1ccc(CN2CCCn3nc(C(=O)NCc4cc(C)ccc4C)cc3C2=O)cc1 | inactive: 0.502% | 
CCOC(=O)c1cc(-c2ccccc2)n(CC(=O)NC2CCC(C)CC2)c1C (stereo not given) |  | inconclusive [activator, single point]
Cc1ccc(CNC(=O)Nc2cn(CC(C)C)c(=O)c3ccccc23)cc1 |  | inconclusive [activator, partial curve, poor fit]
Cc1onc(-c2c(F)cccc2Cl)c1C(=O)Nc1ccc(OC(C)C)cc1 | inactive: -1.96% | 
COc1ccc(Nc2oc(/C=C/c3ccc(OC)c(OC)c3)nc2C#N)cc1 |  | inconclusive [activator, single point]
Cc1cc(C)cc(NC(=O)Cn2cc(C(=O)c3ccccc3)c(=O)c3ccc(C)nc32)c1 |  | inconclusive [activator, partial curve, poor fit]
CC(=O)c1ccc(NC(=O)Cn2c(=O)oc3cc(S(=O)(=O)N4CCCCC4)ccc32)cc1 | inactive: 0.966% | 
Cc1ccc(CSC2=Nc3ccccc3C3=NC(CC(=O)NCc4cccs4)C(=O)N23)cc1 (stereo not given) |  | inconclusive [activator, partial curve, poor fit]
COc1cc(CNc2ccc3[nH]c(=O)[nH]c3c2)cc(Br)c1OCc1ccc(F)cc1 | inactive: -3.69% | 
Cc1ccc(-c2noc(CSc3nnc(C)n3-c3ccc(C)cc3)n2)cc1 |  | inconclusive [activator, partial curve, poor fit]
COC(=O)c1ccc(Cn2nnc3sc4c(c3c2=O)CCCC4)cc1 |  | inconclusive [activator, partial curve, poor fit]
Cc1ccc(C)c(Nc2nc3nonc3nc2Nc2cccc(C)c2C)c1 |  | inconclusive [activator, single point]
O=C(CN(c1cccc(C(F)(F)F)c1)S(=O)(=O)c1ccccc1)Nc1cccc(Cl)c1 | inactive: -1.35% | 
COc1ccccc1NC(=O)COC(=O)CC(C)(C)CC1=NS(=O)(=O)c2ccccc2N1 |  | inconclusive [activator, partial curve, poor fit]
CC(=O)Nc1ccc(NC(=O)c2nc(SCc3ccccc3C)ncc2Cl)cc1 | inactive: -1.46% | 
COc1ccc(-c2noc(CSc3nnc(C)n3-c3ccc(C)cc3)n2)cc1 |  | inconclusive [activator, partial curve, poor fit]
CC1=C(C(=O)OC2CCCCCC2)C(c2c(Cl)cccc2Cl)CC(=O)N1 (stereo not given) | inactive: 0.456% | 
CSc1ccc(CNC(=O)c2ccc(NC(=O)c3nsc4ccccc34)cc2)cc1 |  | inconclusive [activator, partial curve, poor fit]
CCN(C(=O)c1cc2c(=O)oc3ccc(C)cc3c2s1)c1cc(OC)ccc1OC |  | inconclusive [activator, partial curve, poor fit]
CCCN(CCC)C(=O)CSc1nc2ccccc2c(=O)n1Cc1ccco1 |  | inconclusive [activator, single point]
Cc1ccc(S(=O)(=O)N2CCC(c3ccncc3)CC2)c(C)c1 | inactive: -3.36% | 
Cc1c(NC(=O)c2ccc(OC(C)C)cc2)cccc1-c1nc2ncccc2o1 | inactive: 0.64% | 
Cc1ccc(NC(=O)c2c(C)oc3ccc(O)c(CN4CCCCCC4)c23)c(C)c1 |  | inconclusive [activator, partial curve, poor fit]

Structure (SMILES) | activation | Potency
CCC(=O)N1CCc2cc(Br)cc(S(=O)(=O)N3CCCC(C(=O)N(C)c4ccc(Br)cc4)C3)c21 (stereo not given) | inactive: -1.14% | 
COc1ccc(N2CCN(C(=O)CCc3c(C)nc4cc(-c5ccc(Cl)cc5)nn4c3C)CC2)cc1 | inactive: -0.941% | 
COc1ccc(Cl)cc1NC(=O)c1c(NCc2sccc2C)sc2c1CCCC2 |  | inconclusive [activator, single point]
COC(=O)NNC(=O)C1CCC(C)CC1 (stereo not given) | inactive: -1.45% | 
CCCN(CCC)CCCNC(=O)Cn1cc2c(n1)-c1c(oc(C(=O)N3CCCC3)c1C)CC2 |  | inconclusive [activator, partial curve, poor fit]
CNC(=O)c1ccc(NC(=O)c2nsc3ccccc23)cc1 | inactive: -3.62% | 
CCCCNC(=O)c1ccc(-c2nc(CS(=O)(=O)c3ccc(C)cc3)c(C)o2)cc1 | inactive: -0.345% | 
Cc1ccc2c(c1)-c1c(c(C(=O)N3CCN(c4cc(Cl)ccc4C)CC3)nn1C)CS2 |  | inconclusive [activator, partial curve, poor fit]
CC(C)OCc1cc(CN2CCN(c3ccccc3)CC2)c(O)c2ncccc12 |  | inconclusive [activator, full curve, poor fit]
COC(=O)c1ccc(CNC(=O)c2nc(Cn3nc(C)c(Br)c3C)no2)cc1 | inactive: -0.392% | 
O=c1[nH]c2ccc(NCc3ccc(-c4ccccc4F)o3)cc2[nH]1 |  | inconclusive [activator, partial curve, poor fit]
COc1cc(NC(=O)C2=C(C)Nc3nnnn3C2c2ccc(SC)cc2)c(OC)cc1Cl (stereo not given) |  | inconclusive [activator, partial curve, poor fit]
CCOc1ccc(C(=O)NCCS(=O)(=O)N2CCN(c3cccc(Cl)c3)CC2)cc1 |  | inconclusive [activator, single point]
CC(C)c1ccc(C2c3c(-c4ccccc4O)n[nH]c3C(=O)N2CCc2ccccc2)cc1 (stereo not given) |  | inconclusive [activator, partial curve, poor fit]
Cn1c(=O)n(C)c2cc(N3CCCC3)c(NC(=O)Nc3ccccc3)cc21 | inactive: -2.23% | 
CCc1nnc(NC(=O)CSc2nc3c([nH]c4ccccc43)c(=O)n2-c2ccc(OC)cc2)s1 |  | inconclusive [activator, partial curve, poor fit]
Cc1ccc(CNC(=O)Cn2c(=O)n(Cc3ccccc3)c(=O)c3c2c2cc(C)ccc2n3C)cc1 | inactive: -1.18% | 
CCOc1ccc(NC(=O)CC2Nc3cccc4cccc(c34)NC2=O)cc1 (stereo not given) |  | inconclusive [activator, partial curve, poor fit]
O=C(Cn1c(=O)n(-c2ccc(F)cc2)c(=O)c2sccc21)Nc1cccc(C(F)(F)F)c1 |  | inconclusive [activator, single point]
COc1ccc(C2c3c(-c4ccccc4O)n[nH]c3C(=O)N2CCc2ccccc2)cc1 (stereo not given) |  | inconclusive [activator, single point]
O=C(COc1ccc2oc3c(c2c1)CCCC3)Nc1ccc(Cl)cc1 | inactive: 0.534% | 
Cc1ccc(Cn2cc(C(=O)c3ccc(C)cc3)c(=O)c3ccc(C)nc32)cc1 |  | inconclusive [activator, partial curve, poor fit]
COc1ccc(Cl)cc1NC(=O)c1c(NCc2ccc(C)o2)sc2c1CCCC2 |  | inconclusive [activator, single point]
CCOC(=O)c1c(C)sc(-c2c(-c3ccc(OC)c(F)c3)[nH]c3c2c(=O)[nH]c(=O)n3C)c1O |  | inconclusive [activator, single point]
COc1cccc(NC(=O)CSc2nc3c([nH]c4ccccc43)c(=O)n2-c2cccc(Cl)c2)c1 |  | inconclusive [activator, full curve]
